Results: publication PMC9911399, “Two distinct binding modes provide the RNA-binding protein RbFox with extraordinary sequence specificity”
Substitutions are numbered along the chain they refer to; changes in the protein carry UniProt numbers. The list shows a part of the results.

T1: RBFOX1 RRM RbFoxmut (Fox-RRM*) (Homo sapiens, UniProt Q9NWB1 109-208, R118D;E147R;N151S;E152T)
T1 sequence: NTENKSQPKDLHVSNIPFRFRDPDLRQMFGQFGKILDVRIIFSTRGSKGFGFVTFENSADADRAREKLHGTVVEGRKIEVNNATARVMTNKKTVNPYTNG

B1: GAGACGU (DNA:RNA)
RNA: GGGAGACCGGAAUUCAGAUUGUCCGAGACGUUUAAAUCCCGUCGUAGCCACCA
DNA 1: CAATCTGAATTCCGGTCTCCC
DNA 2: TGGTGGCTACGACGGGATT
B2: CUCACAC (DNA:RNA)
RNA: B1 RNA with G25C, A26U, G27C, G30A, U31C
DNA 1: CAATCTGAATTCCGGTCTCCC
DNA 2: TGGTGGCTACGACGGGATT
B3: AUAUCAA (DNA:RNA)
RNA: B1 RNA with G25A, A26U, G27A, A28U, G30A, U31A
DNA 1: CAATCTGAATTCCGGTCTCCC
DNA 2: TGGTGGCTACGACGGGATT
B4: UUUACUG (DNA:RNA)
RNA: B1 RNA with G25U, A26U, G27U, G30U, U31G
DNA 1: CAATCTGAATTCCGGTCTCCC
DNA 2: TGGTGGCTACGACGGGATT
B5: UUGACUG (DNA:RNA)
RNA: B1 RNA with G25U, A26U, G30U, U31G
DNA 1: CAATCTGAATTCCGGTCTCCC
DNA 2: TGGTGGCTACGACGGGATT
B6: GUUCAAU (DNA:RNA)
RNA: B1 RNA with A26U, G27U, A28C, C29A, G30A
DNA 1: CAATCTGAATTCCGGTCTCCC
DNA 2: TGGTGGCTACGACGGGATT
B7: AGCUUGU (DNA:RNA)
RNA: B1 RNA with G25A, A26G, G27C, A28U, C29U
DNA 1: CAATCTGAATTCCGGTCTCCC
DNA 2: TGGTGGCTACGACGGGATT
B8: CAGUGUC (DNA:RNA)
RNA: B1 RNA with G25C, A28U, C29G, G30U, U31C
DNA 1: CAATCTGAATTCCGGTCTCCC
DNA 2: TGGTGGCTACGACGGGATT
B9: UCUUCUU (DNA:RNA)
RNA: B1 RNA with G25U, A26C, G27U, A28U, G30U
DNA 1: CAATCTGAATTCCGGTCTCCC
DNA 2: TGGTGGCTACGACGGGATT
B10: ACGCAAU (DNA:RNA)
RNA: B1 RNA with G25A, A26C, A28C, C29A, G30A
DNA 1: CAATCTGAATTCCGGTCTCCC
DNA 2: TGGTGGCTACGACGGGATT
B11: GCUAGUC (DNA:RNA)
RNA: B1 RNA with A26C, G27U, C29G, G30U, U31C
DNA 1: CAATCTGAATTCCGGTCTCCC
DNA 2: TGGTGGCTACGACGGGATT
B12: GUUUACC (DNA:RNA)
RNA: B1 RNA with A26U, G27U, A28U, C29A, G30C, U31C
DNA 1: CAATCTGAATTCCGGTCTCCC
DNA 2: TGGTGGCTACGACGGGATT
B13: GGAACCA (DNA:RNA)
RNA: B1 RNA with A26G, G27A, G30C, U31A
DNA 1: CAATCTGAATTCCGGTCTCCC
DNA 2: TGGTGGCTACGACGGGATT
B14: UCGCGGG (DNA:RNA)
RNA: B1 RNA with G25U, A26C, A28C, C29G, U31G
DNA 1: CAATCTGAATTCCGGTCTCCC
DNA 2: TGGTGGCTACGACGGGATT
B15: CAUCGCG (DNA:RNA)
RNA: B1 RNA with G25C, G27U, A28C, C29G, G30C, U31G
DNA 1: CAATCTGAATTCCGGTCTCCC
DNA 2: TGGTGGCTACGACGGGATT
B16: AAGACUC (DNA:RNA)
RNA: B1 RNA with G25A, G30U, U31C
DNA 1: CAATCTGAATTCCGGTCTCCC
DNA 2: TGGTGGCTACGACGGGATT
B17: GCAGCCA (DNA:RNA)
RNA: B1 RNA with A26C, G27A, A28G, G30C, U31A
DNA 1: CAATCTGAATTCCGGTCTCCC
DNA 2: TGGTGGCTACGACGGGATT
B18: GUGACAU (DNA:RNA)
RNA: B1 RNA with A26U, G30A
DNA 1: CAATCTGAATTCCGGTCTCCC
DNA 2: TGGTGGCTACGACGGGATT
B19: UAUCGGA (DNA:RNA)
RNA: B1 RNA with G25U, G27U, A28C, C29G, U31A
DNA 1: CAATCTGAATTCCGGTCTCCC
DNA 2: TGGTGGCTACGACGGGATT
B20: CCAUCCA (DNA:RNA)
RNA: B1 RNA with G25C, A26C, G27A, A28U, G30C, U31A
DNA 1: CAATCTGAATTCCGGTCTCCC
DNA 2: TGGTGGCTACGACGGGATT
B21: AAACAAA (DNA:RNA)
RNA: B1 RNA with G25A, G27A, A28C, C29A, G30A, U31A
DNA 1: CAATCTGAATTCCGGTCTCCC
DNA 2: TGGTGGCTACGACGGGATT
B22: CAUAGUU (DNA:RNA)
RNA: B1 RNA with G25C, G27U, C29G, G30U
DNA 1: CAATCTGAATTCCGGTCTCCC
DNA 2: TGGTGGCTACGACGGGATT
B23: UUCAAUC (DNA:RNA)
RNA: B1 RNA with G25U, A26U, G27C, C29A, G30U, U31C
DNA 1: CAATCTGAATTCCGGTCTCCC
DNA 2: TGGTGGCTACGACGGGATT
B24: GGUGGUU (DNA:RNA)
RNA: B1 RNA with A26G, G27U, A28G, C29G, G30U
DNA 1: CAATCTGAATTCCGGTCTCCC
DNA 2: TGGTGGCTACGACGGGATT
B25: CGAAGGU (DNA:RNA)
RNA: B1 RNA with G25C, A26G, G27A, C29G
DNA 1: CAATCTGAATTCCGGTCTCCC
DNA 2: TGGTGGCTACGACGGGATT
B26: ACAGAGA (DNA:RNA)
RNA: B1 RNA with G25A, A26C, G27A, A28G, C29A, U31A
DNA 1: CAATCTGAATTCCGGTCTCCC
DNA 2: TGGTGGCTACGACGGGATT
B27: GCUGUUU (DNA:RNA)
RNA: B1 RNA with A26C, G27U, A28G, C29U, G30U
DNA 1: CAATCTGAATTCCGGTCTCCC
DNA 2: TGGTGGCTACGACGGGATT
B28: AAACAAC (DNA:RNA)
RNA: B1 RNA with G25A, G27A, A28C, C29A, G30A, U31C
DNA 1: CAATCTGAATTCCGGTCTCCC
DNA 2: TGGTGGCTACGACGGGATT
B29: GGUUUAU (DNA:RNA)
RNA: B1 RNA with A26G, G27U, A28U, C29U, G30A
DNA 1: CAATCTGAATTCCGGTCTCCC
DNA 2: TGGTGGCTACGACGGGATT
B30: ACUGGCC (DNA:RNA)
RNA: GGGAGACCGGAAUUCAGAUUGUCCACUGGCCUUAAAUCCCGUCGUAGCCACCA
DNA 1: CAATCTGAATTCCGGTCTCCC
DNA 2: TGGTGGCTACGACGGGATT
B31: UGUUCGC (DNA:RNA)
RNA: B30 RNA with A25U, C26G, G28U, G29C, C30G
DNA 1: CAATCTGAATTCCGGTCTCCC
DNA 2: TGGTGGCTACGACGGGATT

biological target: T1, RBFOX1 RRM RbFoxmut (Fox-RRM*); test: EMSA; HiTS-Eq, 1 nM pool, 10 min; buffer printed only for the single-RNA assays: 10 mM Tris pH 7.5, 150 mM NaCl, 3.4 mM EDTA, 0.001% NP-40, 30 C; conditions: tags: His6 N-terminal (pET28a); label: 5' 32P
Outline: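 Purified RbFox RRM, wild type or mutant, was incubated for 10 min in 50 µL with 1 nM of a 5′-radiolabelled RNA pool carrying 7 randomized nucleotides, whose flanks were annealed to DNA oligonucleotides, over a series of increasing protein concentrations. Unbound RNA was resolved on 8% native PAGE, cut out, reverse-transcribed, barcoded by PCR and sequenced on an Illumina HiSeq 2500. Relative association constants were derived from changes in read counts for each RNA species versus the control reaction and normalised to the cognate motif.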

Binder | binding signal
B1 | 0.0818 KA relative to UGCAUGU
B2 | 0.139 KA relative to UGCAUGU
B3 | 0.0951 KA relative to UGCAUGU
B4 | 0.0792 KA relative to UGCAUGU
B5 | 0.243 KA relative to UGCAUGU
B6 | 0.0734 KA relative to UGCAUGU
B7 | 0.238 KA relative to UGCAUGU
B8 | 0.216 KA relative to UGCAUGU
B9 | 0.0701 KA relative to UGCAUGU
B10 | 0.0551 KA relative to UGCAUGU
B11 | 0.073 KA relative to UGCAUGU
B12 | 0.071 KA relative to UGCAUGU
B13 | 0.163 KA relative to UGCAUGU
B14 | 0.082 KA relative to UGCAUGU
B15 | 0.111 KA relative to UGCAUGU
B16 | 0.059 KA relative to UGCAUGU

Binder | binding signal
B17 | 0.073 KA relative to UGCAUGU
B18 | 0.08 KA relative to UGCAUGU
B19 | 0.0559 KA relative to UGCAUGU
B20 | 0.0884 KA relative to UGCAUGU
B21 | 0.0465 KA relative to UGCAUGU
B22 | 0.105 KA relative to UGCAUGU
B23 | 0.0455 KA relative to UGCAUGU
B24 | 0.106 KA relative to UGCAUGU
B25 | 0.0983 KA relative to UGCAUGU
B26 | 0.113 KA relative to UGCAUGU
B27 | 0.0916 KA relative to UGCAUGU
B28 | 0.0531 KA relative to UGCAUGU
B29 | 0.102 KA relative to UGCAUGU
B30 | 0.275 KA relative to UGCAUGU
B31 | 0.162 KA relative to UGCAUGU
